{"source": "the supplement of paper PMC9135407", "tested_on": "primary human hepatic stellate cells (donor 1)", "assay": "scaled lipid accumulation score (0 = DMSO-like, 1 = nortriptyline-like); higher = stronger HSC inactivation (lipid re-accumulation), active = hit call of the paper", "conditions": "48 h", "key": {"[1]": {"conditions": "library stock concentration: 10 mM"}, "[2]": {"conditions": "library stock concentration: 3.33 mM"}, "[3]": {"conditions": "library stock concentration: 9.6 mM"}, "[4]": {"conditions": "library stock concentration: 8.1 mM"}, "[5]": {"conditions": "library stock concentration: 1 mM"}, "[6]": {"conditions": "library stock concentration: 400 uM"}, "[7]": {"conditions": "library stock concentration: 2 mM"}}, "note": "Several values for one entry are separate records, joined by “and”; a condition that tells them apart may be missing. Equal entries are not always repeated. Structures can show the parent of a compound that is named as a salt. Hit rate of the full screen: of about 5,800 compounds, about 620 (11%) showed activity.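 How the source made its calls: active = score above a cut-off or among the top three wells of a plate; in these data no inactive exceeds 0.85.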 The list shows a part of the results, in another mix than the full data."}
{"smiles": "NS(=O)(=O)c1cc2c(cc1Cl)NC(C1CC3C=CC1C3)NS2(=O)=O", "note": "(stereo unspecified) [Cyclothiazide]", "values": [{"measurement": "scaled lipid accumulation score", "setting": "library stock concentration: 5.1 mM", "value": "inactive: ≤ 0"}, {"measurement": "scaled lipid accumulation score", "setting": "[1]", "value": "inactive: ≤ -0.07 and inactive: 0.028"}]}
{"smiles": "O=C1NS(=O)(=O)c2ccccc21", "note": "[Saccharin]", "values": [{"measurement": "scaled lipid accumulation score", "setting": "[1]", "value": "inactive: 0.02"}, {"measurement": "scaled lipid accumulation score", "setting": "library stock concentration: 10.9 mM", "value": "inactive: ≤ 0"}]}
{"smiles": "S=C(S)N1CCCC1", "note": "[Pyrrolidinedithiocarbamate ammonium]", "values": [{"measurement": "scaled lipid accumulation score", "setting": "[1]", "value": "inactive: 0.149"}]}
{"smiles": "S=C(S)N1CCCC1", "note": "[Ammonium pyrrolidinedithiocarbamate]", "values": [{"measurement": "scaled lipid accumulation score", "setting": "[1]", "value": "inactive: ≤ 0"}]}
{"smiles": "Cc1cc(Nc2cc(N3CCN(C)CC3)nc(C=Cc3ccccc3)n2)n[nH]1", "values": [{"measurement": "scaled lipid accumulation score", "setting": "[2]", "value": "active: 1.06"}]}
{"smiles": "CCN(CC)CC(=O)Nc1c(C)cccc1C", "note": "[Lidoca?ne hydrochloride]", "values": [{"measurement": "scaled lipid accumulation score", "value": "inactive: 0.017"}]}
{"smiles": "CCN(CC)CC(=O)Nc1c(C)cccc1C", "note": "[Lidocaine hydrochloride]", "values": [{"measurement": "scaled lipid accumulation score", "setting": "[1]", "value": "inactive: ≤ 0 and inactive: ≤ -0.052"}]}
{"smiles": "CCN(CC)CC(=O)Nc1c(C)cccc1C", "values": [{"measurement": "scaled lipid accumulation score", "setting": "[3]", "value": "inactive: 0.022"}, {"measurement": "scaled lipid accumulation score", "setting": "library stock concentration: 17.3 mM", "value": "inactive: 0.009"}]}
{"smiles": "CCN(CC)CC(=O)Nc1c(C)cccc1C", "note": "[Lidocaine]", "values": [{"measurement": "scaled lipid accumulation score", "setting": "[2]", "value": "inactive: ≤ 0"}, {"measurement": "scaled lipid accumulation score", "setting": "[1]", "value": "inactive: ≤ 0"}]}
{"smiles": "CC(=O)OCC(=O)[C@@]12OC(C)(C)O[C@@H]1C[C@H]1[C@@H]3C[C@H](F)C4=CC(=O)C=C[C@]4(C)[C@@]3(F)[C@@H](O)C[C@@]12C", "note": "[Fluocinonide]", "values": [{"measurement": "scaled lipid accumulation score", "value": "inactive: ≤ 0"}, {"measurement": "scaled lipid accumulation score", "setting": "[2]", "value": "inactive: ≤ 0"}, {"measurement": "scaled lipid accumulation score", "setting": "library stock concentration: 4 mM", "value": "inactive: ≤ -0.001"}, {"measurement": "scaled lipid accumulation score", "setting": "[1]", "value": "inactive: ≤ 0"}]}
{"smiles": "c1ccc2c(CC3=NCCN3)cccc2c1", "note": "[Naphazoline HCl]", "values": [{"measurement": "scaled lipid accumulation score", "setting": "[2]", "value": "inactive: ≤ 0"}, {"measurement": "scaled lipid accumulation score", "setting": "library stock concentration: 9.5 mM", "value": "inactive: 0.147"}, {"measurement": "scaled lipid accumulation score", "setting": "[1]", "value": "inactive: ≤ 0"}]}
{"smiles": "c1ccc2c(CC3=NCCN3)cccc2c1", "note": "[Naphazoline hydrochloride]", "values": [{"measurement": "scaled lipid accumulation score", "value": "inactive: ≤ 0"}, {"measurement": "scaled lipid accumulation score", "setting": "[4]", "value": "inactive: 0.057"}, {"measurement": "scaled lipid accumulation score", "setting": "[1]", "value": "inactive: ≤ 0 and inactive: ≤ -0.045"}]}
{"smiles": "COC(=O)C1=CO[C@@H](C)[C@H]2CN3CCc4c([nH]c5ccccc45)[C@@H]3C[C@H]12", "note": "[Ajmalicine hydrochloride]", "values": [{"measurement": "scaled lipid accumulation score", "value": "inactive: 0.17"}]}
{"smiles": "CC/C=C\\C/C=C\\C/C=C\\CCCCCCCCCCCC(=O)O", "note": "[Docosatrienoic acid (22:3 n-3)]", "values": [{"measurement": "scaled lipid accumulation score", "setting": "[5]", "value": "inactive: ≤ -0.021"}]}
{"smiles": "CCCCCCCCCC(=O)N[C@H](CN1CCOCC1)[C@H](O)c1ccccc1", "note": "(racemic) [DL-threo-PDMP (hydrochloride)]", "values": [{"measurement": "scaled lipid accumulation score", "setting": "[5]", "value": "inactive: 0.001"}]}
{"smiles": "C[C@@H](O[C@H]1OCCN(Cc2nn(P(=O)(O)O)c(=O)[nH]2)[C@H]1c1ccc(F)cc1)c1cc(C(F)(F)F)cc(C(F)(F)F)c1", "note": "[Fosaprepitant dimeglumine salt]", "values": [{"measurement": "scaled lipid accumulation score", "setting": "[2]", "value": "inactive: 0.056"}, {"measurement": "scaled lipid accumulation score", "setting": "[1]", "value": "inactive: 0.01"}]}
{"smiles": "COc1cc2nccc(Oc3ccc(NC(=O)NC4CC4)c(Cl)c3)c2cc1C(N)=O", "note": "[Lenvatinib (E7080)]", "values": [{"measurement": "scaled lipid accumulation score", "setting": "[2]", "value": "inactive: 0.055"}, {"measurement": "scaled lipid accumulation score", "setting": "[1]", "value": "inactive: ≤ 0"}]}
{"smiles": "COc1cc2nccc(Oc3ccc(NC(=O)NC4CC4)c(Cl)c3)c2cc1C(N)=O", "values": [{"measurement": "scaled lipid accumulation score", "setting": "[6]", "value": "inactive: 0.067"}, {"measurement": "scaled lipid accumulation score", "setting": "[7]", "value": "inactive: ≤ -0.005"}, {"measurement": "scaled lipid accumulation score", "setting": "[1]", "value": "inactive: ≤ -0.005"}]}
{"smiles": "CCn1c(=O)[nH]c2cc(Cl)c(Cl)cc21", "values": [{"measurement": "scaled lipid accumulation score", "setting": "[1]", "value": "inactive: 0.826 and inactive: 0.476"}]}
{"smiles": "CC(C)(CO)c1cc2cc(NC(=O)C3(c4ccc5c(c4)OC(F)(F)O5)CC3)c(F)cc2n1C[C@@H](O)CO", "values": [{"measurement": "scaled lipid accumulation score", "setting": "[2]", "value": "inactive: ≤ 0"}, {"measurement": "scaled lipid accumulation score", "setting": "[1]", "value": "inactive: ≤ -0.001"}]}
{"smiles": "CN1C(=O)CC[C@H]1c1cccnc1", "note": "[Cotinine]", "values": [{"measurement": "scaled lipid accumulation score", "setting": "[1]", "value": "inactive: ≤ 0"}, {"measurement": "scaled lipid accumulation score", "setting": "library stock concentration: 11.3 mM", "value": "inactive: ≤ -0.001"}]}
{"smiles": "CN1C(=O)CC[C@H]1c1cccnc1", "note": "[Cotinine (-)]", "values": [{"measurement": "scaled lipid accumulation score", "value": "inactive: ≤ 0"}]}
{"smiles": "CN1C(=O)CC[C@H]1c1cccnc1", "note": "[(-)-Cotinine]", "values": [{"measurement": "scaled lipid accumulation score", "setting": "[1]", "value": "inactive: ≤ 0 and inactive: 0.057"}]}
{"smiles": "Cc1c(CN2CCN(C(=O)[C@H](C)O)CC2)sc2c(N3CCOCC3)nc(-c3cnc(N)nc3)nc12", "values": [{"measurement": "scaled lipid accumulation score", "setting": "library stock concentration: 80 uM", "value": "inactive: 0.079"}, {"measurement": "scaled lipid accumulation score", "setting": "[6]", "value": "inactive: ≤ -0.015"}, {"measurement": "scaled lipid accumulation score", "setting": "[7]", "value": "inactive: ≤ -0.016"}, {"measurement": "scaled lipid accumulation score", "setting": "[2]", "value": "inactive: ≤ 0"}, {"measurement": "scaled lipid accumulation score", "setting": "[1]", "value": "inactive: ≤ 0 and inactive: ≤ -0.016"}]}
{"smiles": "COC(=O)c1ccc2c(c1)NC(=O)C2=C(Nc1ccc(N(C)C(=O)CN2CCN(C)CC2)cc1)c1ccccc1", "values": [{"measurement": "scaled lipid accumulation score", "setting": "[1]", "value": "active: 0.976"}]}
{"smiles": "Cc1cnc(-c2cc(N3CCN(C(=O)CCS(C)(=O)=O)CC3)ncc2Cl)c(C)c1", "values": [{"measurement": "scaled lipid accumulation score", "setting": "[2]", "value": "inactive: ≤ 0"}, {"measurement": "scaled lipid accumulation score", "setting": "[1]", "value": "inactive: ≤ 0"}]}
{"smiles": "CN1CCc2c(c3ccccc3n2Cc2ccc(C(=O)NO)cc2)C1", "note": "[Tubastatin A HCl]", "values": [{"measurement": "scaled lipid accumulation score", "setting": "[2]", "value": "inactive: ≤ 0"}, {"measurement": "scaled lipid accumulation score", "setting": "[1]", "value": "inactive: 0.218"}]}
{"smiles": "CN1CCc2c(c3ccccc3n2Cc2ccc(C(=O)NO)cc2)C1", "note": "[Tubastatin A]", "values": [{"measurement": "scaled lipid accumulation score", "setting": "[2]", "value": "inactive: ≤ 0"}, {"measurement": "scaled lipid accumulation score", "setting": "[1]", "value": "inactive: ≤ 0"}]}
{"smiles": "CC(=N)NCCCC[C@H](N)C(=O)O", "note": "[L-NIL hydrochloride]", "values": [{"measurement": "scaled lipid accumulation score", "setting": "[1]", "value": "inactive: 0.025"}]}
{"smiles": "CN(C)C(=O)c1ccc(S(=O)(=O)c2ccc(NC(=O)C(C)(O)C(F)(F)F)c(Cl)c2)cc1", "note": "(stereo unspecified)", "values": [{"measurement": "scaled lipid accumulation score", "setting": "[2]", "value": "inactive: ≤ -0.009"}, {"measurement": "scaled lipid accumulation score", "setting": "[1]", "value": "inactive: ≤ 0"}]}
{"smiles": "CC[C@@H]1C(=O)OC[C@@H]1Cc1cncn1C", "note": "[Pilocarpine HCl]", "values": [{"measurement": "scaled lipid accumulation score", "setting": "[2]", "value": "inactive: ≤ 0"}, {"measurement": "scaled lipid accumulation score", "setting": "[3]", "value": "inactive: ≤ -0.006"}, {"measurement": "scaled lipid accumulation score", "setting": "[1]", "value": "inactive: ≤ -0.001"}]}
{"smiles": "CC[C@@H]1C(=O)OC[C@@H]1Cc1cncn1C", "note": "[(+)-Pilocarpine hydrochloride]", "values": [{"measurement": "scaled lipid accumulation score", "setting": "[1]", "value": "inactive: 0.136"}]}
{"smiles": "CC[C@@H]1C(=O)OC[C@@H]1Cc1cncn1C", "note": "[Pilocarpine hydrochloride]", "values": [{"measurement": "scaled lipid accumulation score", "setting": "[1]", "value": "inactive: 0.007"}]}
{"smiles": "CC[C@@H]1C(=O)OC[C@@H]1Cc1cncn1C", "note": "[Pilocarpine nitrate]", "values": [{"measurement": "scaled lipid accumulation score", "value": "inactive: ≤ 0"}, {"measurement": "scaled lipid accumulation score", "setting": "[1]", "value": "inactive: ≤ 0 and inactive: ≤ -0.055"}]}
{"smiles": "CC[C@@H]1C(=O)OC[C@@H]1Cc1cncn1C", "values": [{"measurement": "scaled lipid accumulation score", "setting": "[1]", "value": "inactive: ≤ 0"}]}
{"smiles": "Cc1c(NC(=O)c2cccnc2)c(=O)n(-c2ccccc2)n1C", "note": "[Nifenazone]", "values": [{"measurement": "scaled lipid accumulation score", "value": "inactive: ≤ 0"}, {"measurement": "scaled lipid accumulation score", "setting": "[1]", "value": "inactive: ≤ -0.027"}]}
{"smiles": "O=C(/C=C/c1ccc(O)cc1)c1ccc(O)cc1O", "note": "[Isoliquiritigenin]", "values": [{"measurement": "scaled lipid accumulation score", "setting": "[2]", "value": "inactive: ≤ 0"}, {"measurement": "scaled lipid accumulation score", "setting": "[1]", "value": "inactive: 0.017 and inactive: 0.26"}]}
{"smiles": "CS(=O)(=O)OCCCCOS(C)(=O)=O", "note": "[Busulfan]", "values": [{"measurement": "scaled lipid accumulation score", "setting": "[2]", "value": "inactive: 0.013"}, {"measurement": "scaled lipid accumulation score", "setting": "[4]", "value": "inactive: 0.001"}, {"measurement": "scaled lipid accumulation score", "setting": "[1]", "value": "inactive: ≤ 0"}]}
{"smiles": "COC(=O)C1=C(C)NC(C)=C([N+](=O)[O-])[C@H]1c1ccccc1C(F)(F)F", "values": [{"measurement": "scaled lipid accumulation score", "setting": "[1]", "value": "inactive: ≤ -0.005"}]}
